# Experimental data reported in the supplement of paper PMC11417369.
# The other results are listed elsewhere or left out.
# Tested on: PfAP2-HC AP2 domain (GST-tagged)
# Assay: gcPBM binding intensity (ln(normalized median fluorescence intensity)); higher = stronger DNA binding
# Outline: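 In this array assay, P. falciparum DNA-binding domains with a GST tag, expressed in E. coli, were applied for 1 h to primer-extended double-stranded 36-bp intergenic genomic probes and negative controls on an Agilent 4 × 180k array. Bound protein was visualised with Alexa488 anti-GST antibody at 488 nm. Binding intensity is the highest Masliner-normalised natural-log median intensity across replicate spots of either probe orientation.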
row,Sequence,gcPBM binding intensity (ln)
1,ATATTGGAGCACAACACACACAAGTATAAATATGGA [CACACA_site6834],10.2
2,AAAAAACACGCACATACACACAAAAATGTTATAAAT [CACACA_site6188],10.2
3,TTATATTTTTTAATTACACACAATTTTTATAAATAT [CACACA_site4148],9.65
4,ATCTCATAAAACCGCACACACATAAAATTTGCATTA [CACACA_site3891],10.1
5,TATAAATATTATAATTGTACATATTATAAAAATTTT [XGTACX_site2719],9.52
6,TTTAAAATTTAATTTTGTACATATACCAATTTTATT [XGTACX_site448],9.65
7,AATTAGCATAAATGGGTGCTACACAAAAATGCATGT [GTGCAC_site9640],9.74
8,ATATAAATATGAAAAAGTACAAGCCATCAAGAAATC [XGTACX_site8140],9.97
9,AATTTTTTATTCTTTGCATGTCATCATATATAATAT [TGCATGCA_site549],9.81
10,ATATAATGTTAGGGTAGAGGAAGTAACTAATATAAA [CACACA_negctrl_site1153],9.73
11,ATATAATATATGTTATGTACATAGTTTTTATTGTTC [XGTACX_site7438],9.77
12,AATATATAATCAGATGAATTTTTTTTTTTTTTTTCA [CACACA_negctrl_site534],9.21
13,AAATATATAAAAGTATGTACATATGAAAAATATATA [XGTACX_site6165],9.98
14,TTATATAACATAACGATGTTTCAAAACATATTGTAT [CACACA_negctrl_site997],9.59
15,TTATAAAGAATTAGGAGTACAAATGCATATATAATA [XGTACX_site6580],9.73
16,AGCAACTAAAAAGGATACCCCATTAAAAAAAAATTA [XGTACX_negctrl_site489],9.4
17,TGTGTATAAAAAAAGTGTACACAAAGTAAGACTTTA [XGTACX_site3759],9.82
18,TACCAAAAAACGGCACGCATATGTATAAGAATATGT [XGTACX_negctrl_site470],9.68
19,TTAATTAAGAAACACACACACATATATATATATATT [CACACA_site2290],10.5
20,TGAATAAAGAAACACACACACATATATATATATGTA [CACACA_site17],10.3
21,TATTAATAATTTTCATGTACATATGTATTTGTAATA [XGTACX_site858],9.53
22,ATATAATAAATGTCATGTACATACAACATTTTAACT [XGTACX_site7517],9.59

row,Sequence,gcPBM binding intensity (ln)
1,TTTTTAATTTACTGTCATAGGTACCTTAACTTATCA [CACACA_negctrl_site1664],9.67
2,TACTTATGTTCGCACACATGCAAATTAAAAAAAAAA [TGCATGCA_site1023],9.84
3,TACATATACATATTGTGTACATAATAATTATTTATA [XGTACX_site7884],9.76
4,ATTTTTTTACTGGATCCATATTTGCTTTTTTATTTA [CACACA_negctrl_site1108],9.84
5,GTGGATATATGTATATGTACATATGTATGTATATAT [XGTACX_site2412],9.88
6,TCTCTTTTTCGTTCATGTACAAATAAATAAAAATAT [XGTACX_site6558],9.4
7,TTATATATATGACTTTGTACATATACATATTTTTTA [XGTACX_site4669],9.68
8,GTATATTTTATTTTATGTACATATTCATTTTTTATT [XGTACX_site561],10.2
9,TATTATATATATGCACGTACAAAAATAATAAAGGTA [XGTACX_site3506],9.74
10,CATGAATCCTAATAATGTACATAAGAATTCATAATG [XGTACX_site1607],9.45
11,TACATATATATATATGAACACACAAAAAGAATATTT [CACACA_site8421],9.84
12,ATAAGCATACATATTACACACATATAATATATATAT [CACACA_site2487],9.85
13,TCTTACTAATTTATGGGGACTTATCACCTATTCAGT [CACACA_negctrl_site652],9.55
14,AGTGGATAAATTTATTCACACATTTTTTTTTTTTTT [CACACA_site5914],9.49
15,TTTTATGAGAAACACACACACAAAAAAAAAAAAAAA [CACACA_site4129],9.8
16,TATATTATTTATAGTAGTACATAAAATATAAATATT [XGTACX_site4417],9.48
17,AAAAAAAAAAAAAAAACACACATACACATATATTTT [CACACA_site7768],9.99
18,TATTGTATTTCATATTGTACTAAAAAAAAAAAAAAG [XGTACX_site6694],9.42
19,ATAATACATACATACATACACACATATATATATATT [CACACA_site3576],10
20,TAAAAAAAAAAAAAAACACACATATAAATATTTATA [CACACA_site6702],9.61
21,TCAATAATAAAAAACACACACAAAAAAAAATAATTA [CACACA_site2798],10.2
22,AACAAAGTCATACATACATACATATATATATATATA [GTGCAC_negctrl_site632],9.57
